Experimental data published in the DeepSol protein solubility set.

assay: soluble on expression in E. coli; label from the status in PepcDB or PDB records

Row | Sequence | soluble on expression in E. coli
1 | GSTDLFSSPDHTLDALGLRCPEPVMMVRKTVRNMQPGETLLIIADDPATTRDIPGFCTFMEHELVAKETDGLPYRYLIRKGG | soluble
2 | MKFSTVILAAGKGTRMHSNMPKVLHTLAGKPMVKHVIDTCNNLGAQNIHLVYGHGGDQMQQALANENVNWVLQAQQLGTGHAVDQASPHFQDDEKILVLYGDVPLISEDTIESLLEAQPTDGIALLTVVLEDPTGYGRIVRKRGPVVAIVEQKDASEEQKLIKEVNTGVLVATGRDLKRWLAGLNNNNAQGEYYLTDVIAAAHDEGRAVEAVHPSHSIEVEGVNDRIQLARLERAFQARQAKKLLEQGVMLRDPARFDLRGTLQCGSDVEIDVNVIIEGNVSIGNNVVIGAGSILKDCEIDDNTVIRPYSVIEGATVGENCTVGPFTRLRPGAELRDDAHVGNFVEMKNARLGEGSKANHLTYLGDAEIGKGVNVGAGVITCNYDGANKHKTVIGDDVFVGSDCQLVAPVTIGNGATIGAGTTLTKNVAEGELVITRAPERKIAGWQRPAKKK | not soluble
3 | MLVRSCEDVLKIGNYQLKNNLIVAPMAGVTDRPFRELCLRYGAGMAVSEMMSCNPALWKTAKSQNRMVHEGESGIRSVQIAGSDPQLMAEAAQFSVENGAQIIDINMGCPAKKVNKKLAGSALLRYPDVIEDILKAVVNAVNVPVTLKTRTGWDTDNKNCLSIAQLAEDCGIQALALHGRTRACMYKGEAEYDSIKAVKAAVSIPVIANGDIDSPEKARYVLEYTGADALMIGRPAQGRPWIFQEIQHFLEHGTTMPELPISEVKDIMLGHVTALHQFYGEYLGPRIARKHVSWYLQEHEQASAFRRTFNAIETADQQLDALEGYFDNVAS | not soluble
